In ChEMBL document CHEMBL4888484, “Replenishing the malaria drug discovery pipeline: Screening and hit evaluation of the MMV Hit Generation Library 1 (HGL1) against asexual blood stage Plasmodium falciparum ,using a nano luciferase reporter read-out” (2022):
Hit rate of the full screen: of about 150,000 compounds, about 540 (0.36%) showed an effect of 50% or more. Some of the results follow.

System: Plasmodium falciparum
Experiment: Primary screen in NF54 nanoGlo assay, in single point, at 2uM, 72h; a lower Z score goes with more inhibition
Assay type: functional, Erythrocyte
Conditions: timepoint 72 hour

Point of comparison: `CC(C)(C)OC(=O)N1CCCC1C1CCCCN1S(=O)(=O)c1ccc(F)c(F)c1` (centres undefined), “% Inhibition” value 10%. Against it:
- Cc1cc(OCc2ccc(C(=O)N(Cc3ccccc3)Cc3ccccc3)o2)ccc1Cl — lower, -14%
- CCN(Cc1nc(COC)no1)C(=O)c1ccc(-c2cnccc2N)cc1 — lower, -3%
- COc1ccc2[nH]c(-c3nc(C)nn3CC(C)(C)O)cc2c1 — lower, -15%
- Cc1noc(C)c1C(=O)NC[C@H](O)c1ccc(-c2cccs2)s1 — lower, 5%
- CCOCC(=O)N1CCC[C@H]1c1nn(CC2CCCCC2)c2c1COCC2 — lower, -12%
- O=C(CCc1conc1-c1ccc(F)cc1)NC1CC1 — lower, -7%
- CC(C)Cc1ccc(-c2nccn2[C@@H]2C[C@@H](CO)N(C)C2)s1 — lower, -7%
- CCC1(C)OC(=O)N2CCc3c(C)[nH]c4cccc(c34)C21C (centres undefined) — lower, -13%
- Cc1nc(OC[C@H]2CCCOC2)sc1C — lower, -8%
- COCCNC(=O)c1ccc(NCc2ccc(N(C)C)c(F)c2)nc1 — lower, 0%
- Cc1nc(CN2CCOc3ccc(Cl)cc32)no1 — lower, 1%
- O=S(=O)(NCCc1ccsc1)C1CC1 — lower, -11%
- Cc1ccc(Cl)cc1N1CCN(C(=O)c2c(C)oc3ncn(C)c(=O)c23)CC1 — lower, -3%
- CCc1cnc(C)nc1-c1ccc(C(=O)NCCc2nc(N)cc(O)n2)cc1 — lower, 0%
- CC(C)OCCCNC(=O)Nc1cnn(C)c1 — higher, 12%
- Cc1ccc(Cl)cc1N1CCN(C(=O)c2cccc(Nc3nc4ccccc4n4cnnc34)c2)CC1 — lower, -3%
- CN(CC1(CO)CCCC1)C(=O)CN1CCCCC1 — lower, -8%
- Cc1c(C#N)c(NC(=O)CCN2CCOCC2)n(Cc2ccco2)c1C — lower, 9%
- COc1ccc2c(c1)N(Cc1cn(C)nc1C)C[C@H](C)O2 — lower, -8%
- O=C(Nc1ccc(-c2ccn[nH]2)cc1)[C@H]1CCCN(Cc2cc3ccccc3o2)C1 — lower, 3%
- CC(C)CC(=O)N1CC(C(=O)N2CCN(C)CC2)C(c2cccc(C(F)(F)F)c2)C1 (centres undefined) — lower, -11%
- Clc1ccc(-c2nnc([C@@H]3CCCCO3)o2)nc1 — lower, -4%
- O=S(=O)(CCC1Cc2ccccc2C1)N1CCC[C@@](O)(C(F)(F)F)CC1 — higher, 34%
- CC(C)CN1CC2(CCN(C(=O)COC[C@H]3CCCCO3)CC2)CC1=O — lower, -5%
- Cc1ccccc1[C@H]1CCCN(C(=O)CCn2ccc(=O)[nH]c2=O)C1 — lower, -1%
- CCC(CC#N)NC(=O)CC(C)c1c(C)n[nH]c1C (centres undefined) — lower, -3%
- O=S1(=O)CCN(c2nnc(Cc3ccc(Cl)cc3)s2)CCC12CCC2 — lower, -3%
- O=C(CCCc1cn[nH]c1)N1CCC(O)(CO)CC1 — lower, -9%
- COC(=O)C(C)(C)NC(=O)c1ccc(Cl)cc1F — lower, -5%
- C[C@H]1COCCN1Cn1ccc(-c2cccs2)n1 — lower, -9%
- CCC(=O)N(CCN(C)C)Cc1c(-c2ccccc2)noc1N(CC)CC — lower, -11%
- CC(C)(C)n1cc(CNc2nnc(-c3ccc4c(c3)OCO4)o2)cn1 — lower, -12%
- Cc1ccccc1C(=O)c1cccn1CC(=O)NC1CCCCCC1 — lower, -1%
- Cn1nnc2c(C(=O)N3CCCc4cccc(OC(F)F)c43)ccnc21 — lower, -5%
- Cc1ccc2c(c1)N(CC(=O)NCCc1ccccc1)C=NS2(=O)=O — lower, -5%
- CN(C)C(=O)N1CCC(CNC(=O)c2ccc(Br)o2)CC1 — lower, -5%
- O=C(O)c1sc(Cl)cc1S(=O)(=O)NC1CCN(Cc2cccs2)CC1 — lower, 2%
- CC1C(NC(=O)NC[C@@H]2Cc3ccccc3CO2)CC(=O)N1Cc1ccccc1 (some centres undefined) — lower, -1%
- Cc1cc(C(=O)N[C@H](CO)C(C)C)ccc1Cl — lower, -2%
- O=C(Nc1cccc(-c2ncco2)c1)N(CCO)C1CCCCC1 — lower, -4%
- O=C(N[C@H]1C[C@@H]2C[C@H]1CN2C(=O)Nc1ccc(C(F)(F)F)cc1)c1cccs1 — lower, -3%

Point of comparison: `O=C(Nc1cccc(-c2ncco2)c1)N(CCO)C1CCCCC1`, Z score 0.41. Against it:
- Cc1cc(OCc2ccc(C(=O)N(Cc3ccccc3)Cc3ccccc3)o2)ccc1Cl — higher, 1.84
- CCN(Cc1nc(COC)no1)C(=O)c1ccc(-c2cnccc2N)cc1 — lower, 0.38
- COc1ccc2[nH]c(-c3nc(C)nn3CC(C)(C)O)cc2c1 — higher, 2.18
- Cc1noc(C)c1C(=O)NC[C@H](O)c1ccc(-c2cccs2)s1 — lower, -0.71
- CCOCC(=O)N1CCC[C@H]1c1nn(CC2CCCCC2)c2c1COCC2 — higher, 1.13
- O=C(CCc1conc1-c1ccc(F)cc1)NC1CC1 — higher, 0.94
- CC(C)Cc1ccc(-c2nccn2[C@@H]2C[C@@H](CO)N(C)C2)s1 — higher, 1
- CCC1(C)OC(=O)N2CCc3c(C)[nH]c4cccc(c34)C21C (centres undefined) — higher, 1.71
- Cc1nc(OC[C@H]2CCCOC2)sc1C — higher, 1
- COCCNC(=O)c1ccc(NCc2ccc(N(C)C)c(F)c2)nc1 — lower, 0.04
- Cc1nc(CN2CCOc3ccc(Cl)cc32)no1 — lower, -0.07
- O=S(=O)(NCCc1ccsc1)C1CC1 — higher, 1.89
- Cc1ccc(Cl)cc1N1CCN(C(=O)c2c(C)oc3ncn(C)c(=O)c23)CC1 — higher, 0.59
- CCc1cnc(C)nc1-c1ccc(C(=O)NCCc2nc(N)cc(O)n2)cc1 — lower, -0.02
- CC(C)OCCCNC(=O)Nc1cnn(C)c1 — lower, -2.19
- Cc1ccc(Cl)cc1N1CCN(C(=O)c2cccc(Nc3nc4ccccc4n4cnnc34)c2)CC1 — higher, 0.56
- CN(CC1(CO)CCCC1)C(=O)CN1CCCCC1 — higher, 1.48
- Cc1c(C#N)c(NC(=O)CCN2CCOCC2)n(Cc2ccco2)c1C — lower, -0.75
- COc1ccc2c(c1)N(Cc1cn(C)nc1C)C[C@H](C)O2 — higher, 0.73
- O=C(Nc1ccc(-c2ccn[nH]2)cc1)[C@H]1CCCN(Cc2cc3ccccc3o2)C1 — lower, -0.39
- CC(C)(C)OC(=O)N1CCCC1C1CCCCN1S(=O)(=O)c1ccc(F)c(F)c1 (centres undefined) — lower, -1.55
- CC(C)CC(=O)N1CC(C(=O)N2CCN(C)CC2)C(c2cccc(C(F)(F)F)c2)C1 (centres undefined) — higher, 1.2
- Clc1ccc(-c2nnc([C@@H]3CCCCO3)o2)nc1 — higher, 0.79
- O=S(=O)(CCC1Cc2ccccc2C1)N1CCC[C@@](O)(C(F)(F)F)CC1 — lower, -3.86
- CC(C)CN1CC2(CCN(C(=O)COC[C@H]3CCCCO3)CC2)CC1=O — higher, 0.66
- Cc1ccccc1[C@H]1CCCN(C(=O)CCn2ccc(=O)[nH]c2=O)C1 — lower, 0.11
- CCC(CC#N)NC(=O)CC(C)c1c(C)n[nH]c1C (centres undefined) — higher, 0.45
- O=S1(=O)CCN(c2nnc(Cc3ccc(Cl)cc3)s2)CCC12CCC2 — higher, 0.51
- O=C(CCCc1cn[nH]c1)N1CCC(O)(CO)CC1 — higher, 1.29
- COC(=O)C(C)(C)NC(=O)c1ccc(Cl)cc1F — higher, 0.62
- C[C@H]1COCCN1Cn1ccc(-c2cccs2)n1 — higher, 1.65
- CCC(=O)N(CCN(C)C)Cc1c(-c2ccccc2)noc1N(CC)CC — higher, 1.25
- CC(C)(C)n1cc(CNc2nnc(-c3ccc4c(c3)OCO4)o2)cn1 — higher, 1.09
- Cc1ccccc1C(=O)c1cccn1CC(=O)NC1CCCCCC1 — lower, 0.24
- Cn1nnc2c(C(=O)N3CCCc4cccc(OC(F)F)c43)ccnc21 — higher, 0.69
- Cc1ccc2c(c1)N(CC(=O)NCCc1ccccc1)C=NS2(=O)=O — higher, 0.56
- CN(C)C(=O)N1CCC(CNC(=O)c2ccc(Br)o2)CC1 — higher, 0.57
- O=C(O)c1sc(Cl)cc1S(=O)(=O)NC1CCN(Cc2cccs2)CC1 — lower, -0.24
- CC1C(NC(=O)NC[C@@H]2Cc3ccccc3CO2)CC(=O)N1Cc1ccccc1 (some centres undefined) — lower, 0.11
- Cc1cc(C(=O)N[C@H](CO)C(C)C)ccc1Cl — lower, 0.29
- O=C(N[C@H]1C[C@@H]2C[C@H]1CN2C(=O)Nc1ccc(C(F)(F)F)cc1)c1cccs1 — higher, 0.42
